Positions count from the first letter of the chain named. In names and notes the source's numbering stands. These are yes or no findings as the source states them, for the method shown. For some of these results: In cells and extracts the contact can be indirect. Some binding calls cover weakened binding; strength is not graded here. For some of these results: Where a sequence is shown, tags or fusion partners need not be part of it. One block for each binder: values may come before it.
Tests used:
[1] = target: Codanin1 C-terminus (amino acids 1005-1227), bacterial (human) (UniProt Q8IWY9); assay: SEC-MALS; CDIN1 (2 mg/mL), Codanin1_(Cterm) (2 mg/mL) or the 1:1 complex; Zenix SEC 300 column; 20 mM Tris/HCl, 150 mM NaCl, pH 8.0; both purified
[2] = target: Codanin1 C-terminus (amino acids 1005-1227), bacterial (human) (UniProt Q8IWY9); assay: SEC-SAXS; Superdex 200 Increase 5/150 GL; injected at 10 mg/mL; 20 mM Tris/HCl, 150 mM NaCl, 5% glycerol, pH 8.0; 20 °C; profiles compared with AlphaFold models (CRYSOL, OLIGOMER); both purified
[3] = target: T1, Codanin1 full length S1036F-R1042W-D1043V (FWV), expressed in HEK293T (human) (UniProt Q8IWY9); assay: co-IP; HEK293T cotransfected with Flag- and Myc-tagged constructs; lysed in RIPA buffer; anti-FLAG M2 magnetic beads, 3 h at 4 °C; eluted with 3x Flag peptide; Western blot with anti-Flag and anti-Myc
T1 sequence: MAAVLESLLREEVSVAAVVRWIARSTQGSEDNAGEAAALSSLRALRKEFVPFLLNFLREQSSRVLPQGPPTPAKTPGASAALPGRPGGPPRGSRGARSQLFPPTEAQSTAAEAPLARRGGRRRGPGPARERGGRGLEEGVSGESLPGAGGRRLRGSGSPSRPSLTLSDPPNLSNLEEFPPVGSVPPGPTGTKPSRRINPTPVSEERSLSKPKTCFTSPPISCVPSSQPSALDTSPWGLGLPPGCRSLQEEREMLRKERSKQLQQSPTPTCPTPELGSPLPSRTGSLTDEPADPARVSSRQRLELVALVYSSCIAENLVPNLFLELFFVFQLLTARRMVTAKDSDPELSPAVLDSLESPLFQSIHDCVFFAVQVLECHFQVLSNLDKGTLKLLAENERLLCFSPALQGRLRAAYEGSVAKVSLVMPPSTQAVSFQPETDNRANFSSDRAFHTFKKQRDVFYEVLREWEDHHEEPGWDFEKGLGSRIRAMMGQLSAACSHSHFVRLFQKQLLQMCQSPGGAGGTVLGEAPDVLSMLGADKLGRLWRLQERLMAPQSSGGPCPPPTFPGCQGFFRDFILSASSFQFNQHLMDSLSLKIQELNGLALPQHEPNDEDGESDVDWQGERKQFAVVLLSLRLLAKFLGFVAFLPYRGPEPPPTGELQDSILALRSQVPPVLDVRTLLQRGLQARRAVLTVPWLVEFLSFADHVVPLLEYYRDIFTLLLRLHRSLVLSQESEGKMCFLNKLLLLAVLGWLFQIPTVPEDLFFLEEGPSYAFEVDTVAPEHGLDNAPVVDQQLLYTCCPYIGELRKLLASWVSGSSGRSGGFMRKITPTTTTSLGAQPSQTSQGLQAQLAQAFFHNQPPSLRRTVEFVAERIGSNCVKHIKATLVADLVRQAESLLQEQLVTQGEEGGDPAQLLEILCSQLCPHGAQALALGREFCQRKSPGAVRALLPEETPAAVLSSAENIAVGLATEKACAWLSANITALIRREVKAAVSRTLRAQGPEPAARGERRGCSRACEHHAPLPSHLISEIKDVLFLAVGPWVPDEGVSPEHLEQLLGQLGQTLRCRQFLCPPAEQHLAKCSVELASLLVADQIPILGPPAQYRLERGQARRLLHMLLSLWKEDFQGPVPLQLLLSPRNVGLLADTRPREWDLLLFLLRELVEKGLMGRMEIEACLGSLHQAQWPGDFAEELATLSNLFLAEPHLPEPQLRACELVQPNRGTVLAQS

[4] = target: T2, Codanin1 C-terminus (1005-1227) S1036F-R1042W-D1043V (FWV), expressed in HEK293T (human) (UniProt Q8IWY9); assay: as above
T2 sequence: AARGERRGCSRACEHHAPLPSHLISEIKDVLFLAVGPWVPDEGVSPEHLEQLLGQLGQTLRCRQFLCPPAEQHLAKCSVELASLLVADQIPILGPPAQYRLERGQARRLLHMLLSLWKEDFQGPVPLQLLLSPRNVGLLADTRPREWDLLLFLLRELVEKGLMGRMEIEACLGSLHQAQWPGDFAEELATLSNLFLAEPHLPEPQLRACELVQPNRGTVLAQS

[5] = target: T3, Codanin1 C-terminus (amino acids 1005-1227), Flag- or Myc-tagged, expressed in HEK293T (human) (UniProt Q8IWY9); assay: as above
T3 sequence: T2 sequence with F32S, W38R, V39D

[6] = target: T4, Codanin1 full length, Flag- or Myc-tagged, expressed in HEK293T (human) (UniProt Q8IWY9); assay: as above
T4 sequence: T1 sequence with F1036S, W1042R, V1043D

[7] = target: T5, Codanin1 full length, Flag- or Myc-tagged, expressed in HEK293T (human), Q8IWY9; assay: as above; settings: remark: other sources report otherwise
T5 chain: T1 sequence with F1036S, W1042R, V1043D

B2: CDAN1-interacting nuclease 1 (CDIN1), full length, bacterial (natural protein, human, UniProt Q9Y2V0 1-281, looked up)
chain: MILTKAQYDEIAQCLVSVPPTRQSLRKLKQRFPSQSQATLLSIFSQEYQKHIKRTHAKHHTSEAIESYYQRYLNGVVKNGAAPVLLDLANEVDYAPSLMARLILERFLQEHEETPPSKSIINSMLRDPSQIPDGVLANQVYQCIVNDCCYGPLVDCIKHAIGHEHEVLLRDLLLEKNLSFLDEDQLRAKGYDKTPDFILQVPVAVEGHIIHWIESKASFGDECSHHAYLHDQFWSYWNRFGPGLVIYWYGFIQELDCNRERGILLKACFPTNIVTLCHSIA
notes: CDIN1 (C15orf41), human, full length, 281 amino acids; Eluted from the Im7 column by cleavage with His-tagged Ulp1; plasmid pl21 (TriAltus); The anticipated homodimer mass is printed as 67 kDa; Alone in solution it is mainly a homodimer; also called C15orf41
binding [3]: no binding
binding [4]: no binding
binding [5]: binds
binding [6]: binds

B3: CDIN1 Y94C, expressed in HEK293T (protein, UniProt Q9Y2V0 1-281)
chain: B2 chain with Y94C
binding [5]: no binding

B4: CDIN1 Y94C, expressed in HEK293T, Q9Y2V0 1-281 (protein)
chain: B2 chain with Y94C
binding [7]: no binding

B5: CDIN1 L178Q, expressed in HEK293T, Q9Y2V0 1-281 (protein)
chain: B2 chain with L178Q
binding [7]: no binding

B6: CDIN1 L178Q, expressed in HEK293T (protein, UniProt Q9Y2V0 1-281)
chain: B2 chain with L178Q
binding [5]: no binding

B9: CDIN1 C156Y, expressed in HEK293T (protein, UniProt Q9Y2V0 1-281)
chain: B2 chain with C156Y
binding [5]: binds
binding [6]: binds

More lines, now with the values ahead:

binding [1]: no binding (tested: 2 mg/mL)
binding [2]: no binding (tested: 10 mg/mL injected)
B1: Codanin1 C-terminus (amino acids 1005-1227), bacterial (domain or fragment, human, UniProt Q8IWY9 1005-1227, looked up)
chain: T2 sequence with F32S, W38R, V39D
notes: Codanin-1 (CDAN1), human, amino acids 1005-1227, codon-optimized for bacterial expression; Eluted from the Im7 column by cleavage with His-tagged Ulp1; plasmid pl21 (TriAltus); Anticipated mass is printed as 25 kDa; also called C-terminal part of Codanin1

binding [5]: no binding
binding [6]: no binding
B7: CDIN1 Y94S, expressed in HEK293T (protein, UniProt Q9Y2V0 1-281)
chain: B2 chain with Y94S

binding [6]: no binding
B8: CDIN1 Y94C-C156Y-L178Q (CYQ), expressed in HEK293T (protein, UniProt Q9Y2V0 1-281)
chain: B2 chain with Y94C, C156Y, L178Q

binding [6]: no binding
B10: CDIN1 Y94S-C156Y-L178Q (SYQ), expressed in HEK293T (protein, UniProt Q9Y2V0 1-281)
chain: B2 chain with Y94S, C156Y, L178Q

From publication PMC13370696, “Anemia‐associated mutations disrupt the CDIN1‐Codanin1 complex in inherited congenital dyserythropoietic anemia I (CDA‐I) disease” (The Febs Journal, 2026)
